As a reminder, the % Inhibition is the change of the read-out against control, counted positive when it falls.

Hit rate of the full screen: of about 150,000 compounds, about 540 (0.36%) showed an effect of 50% or more. Some of the results follow.

For the assay, the system named is Plasmodium falciparum. The assay is described as follows: Primary screen in NF54 nanoGlo assay, in single point, at 2uM, 72h; a lower Z score goes with more inhibition. In kind it is functional, Erythrocyte. The settings on record: timepoint 72 hour.
For `Cc1onc(C(=O)N2CC(=O)N(CC(C)C)C[C@H](O)C2)c1COc1ccccc1`, the “% Inhibition” value was found to be 6% and the Z score is given as -0.78.

Turning to `COCCN1C(=O)[C@@H]2CC[C@H]1CN(C(=O)c1csc(CN(C)C)n1)C2`, the “% Inhibition” value is -13% and the Z score is listed as 2.4.

In the case of `Cc1ccn2c(=O)c(C(=O)NCc3ccncc3)c(O)nc2c1`, the “% Inhibition” value was -13% and the Z score came to 1.74.

For the compound `CCc1nn2c(c1-c1ccc(OC)c(S(=O)(=O)N3CCOCC3)c1)NC(=O)CCC2=O`, the “% Inhibition” value was -9% and the Z score is on record as 1.01.

Take `CC(C)c1ccoc1C(=O)Nc1nn(C(C)C)cc1C#N`: the “% Inhibition” value is given as -8% and the Z score was 0.88.

`CN(C)c1ncccc1N(C)S(=O)(=O)c1ccc(C#N)cc1`: the “% Inhibition” value is -11% and the Z score was determined as 1.72.

For the compound `Cn1nc([C@@H]2CCCN2C(=O)COc2ccc(F)cc2)c2c1CCOC2`, the “% Inhibition” value is -11% and the Z score turned out to be 1.03.

As for `COC(=O)[C@H](CC1CCCCC1)NC(=O)[C@@H]1CN(C(=O)c2ccc(N(C)C)cc2)CCN1C(C)=O`, the “% Inhibition” value is 10% and the Z score is -1.19.

As for `CC(C1CC1)N(C)C(=O)C1Cc2ccccc2O1` (centres undefined), the “% Inhibition” value is on record as -11% and the Z score stood at 1.56.

Consider `CC(C)OC(=O)Cn1nc2c(S(=O)(=O)N3CCCCC3)cccn2c1=O`, for which the “% Inhibition” value was found to be 1% and the Z score was -0.17.

As for `O=C1COC2CCN(C(=O)c3c[nH]nc3-c3ccsc3)CC2N1` (centres undefined), the “% Inhibition” value was -10% and the Z score came to 1.49.

Consider `CN(C)C1(CC2CC2)CCN(Cc2cccc(C#N)c2)CC1`, for which the “% Inhibition” value is recorded as -3% and the Z score is recorded as 0.54.

For the compound `CN(C(=O)CC1(O)CCCCC1)[C@H]1CCN(CC(F)(F)F)C1=O`, the “% Inhibition” value is -10% and the Z score is given as 1.38.

For the compound `Oc1ccnc([C@H]2CC[C@H](Nc3ncccn3)CC2)n1`, the “% Inhibition” value is on record as -2% and the Z score turned out to be 0.45.

In the case of `COC(=O)c1ncnc(NCc2nc(C(F)(F)F)c[nH]2)c1OC`, the “% Inhibition” value is -6% and the Z score turned out to be 0.82.

As for `CC(C)[C@@H]1N(c2ccc(S(C)(=O)=O)cn2)CC12CCCC2`, the “% Inhibition” value was -5% and the Z score stood at 0.69.

As for `Cc1cccc(NC(=O)c2cc(C)n(Cc3ccccn3)c2C)c1C`, the “% Inhibition” value is given as -1% and the Z score stood at 0.1.

With `Cn1c(C(=O)N2CCCCC2)cc2cc(S(=O)(=O)N3CCCCC3)ccc21`, the “% Inhibition” value was -10% and the Z score was found to be 1.82.

For the compound `C=C[C@H](CO)NC(=O)CC1C(=O)Nc2c(F)cccc21` (some centres undefined), the “% Inhibition” value is reported as -11% and the Z score is recorded as 1.51.

On to `Cc1cc(F)ccc1NC(=O)C(=O)NC[C@H](O)C(C)(C)C`, for which the “% Inhibition” value is -2% and the Z score is 0.26.

With `CCC[C@H]1CN(C(=O)C(C)(C)Oc2ccc(C)cc2)C[C@@H]1N`, the “% Inhibition” value came out at 19% and the Z score is -2.52.

Consider `O=C(c1nccc2ccccc12)N1CC[C@H](Oc2ncccc2Br)C1`, for which the “% Inhibition” value is -2% and the Z score came out at 0.46.

For the compound `Cc1nn(C)c(C)c1CCN(C)c1ncc2c(=O)n(C3CCCC3)c(=O)[nH]c2n1`, the “% Inhibition” value worked out at 5% and the Z score is -0.78.

Consider `Cc1nc2cc(OCc3cc(C(=O)N(C)C4CCOCC4)no3)ccc2s1`, for which the “% Inhibition” value is -11% and the Z score turned out to be 1.2.

For `C[C@@H](NC1CCN(CC(F)F)CC1)c1cccc(O)c1`, the “% Inhibition” value is -1% and the Z score turned out to be 0.1.

Regarding `Cc1ccccc1-c1onc(C)c1C(=O)N1CCC(Cc2ccccc2)CC1`, the “% Inhibition” value was 1% and the Z score is -0.11.

As for `CC1(C)C[C@H](Nc2cccc(N3CCS(=O)(=O)CC3)c2)CO1`, the “% Inhibition” value is -11% and the Z score is recorded as 1.42.

Take `CC1=NS(=O)(=O)c2cc(S(=O)(=O)CC(=O)Nc3cc(Cl)ccc3C)ccc2N1`: the “% Inhibition” value is recorded as -2% and the Z score is listed as 0.33.

Take `CN1CCC(N2CCC(CN(Cc3ccncc3)Cc3c(F)cccc3Cl)CC2)CC1`: the “% Inhibition” value stood at 98% and the Z score was -9.12.

Regarding `Cc1noc(C)c1CCc1nc(COc2cccc(Cl)c2)n[nH]1`, the “% Inhibition” value is reported as -7% and the Z score is on record as 1.45.

As to `C[C@H]1C[C@@H](C(=O)N2CC[C@H]3CCCC[C@H]32)CCN1C`, the “% Inhibition” value is reported as -10% and the Z score is listed as 1.93.

For the compound `O=c1[nH]nc(-c2ccc(Cl)cc2)c2cn(-c3ccc(Cl)cc3)nc12`, the “% Inhibition” value is listed as -14% and the Z score was found to be 1.65.

Regarding `CCOC(=O)Cc1csc(NC(=O)COc2cc(C)on2)n1`, the “% Inhibition” value is -19% and the Z score is 3.58.

For the compound `COCCOc1nc(-c2ccco2)n(-c2cccc(NC(=O)c3ccccc3F)c2)n1`, the “% Inhibition” value was determined as 13% and the Z score is recorded as -1.84.

With `COc1ccc(-c2ccc(N3CCN(C(=O)CN(Cc4ccc5c(c4)OCO5)C(=O)c4ccc5c(c4)OCO5)CC3)nn2)c(OC)c1`, the “% Inhibition” value is listed as -1% and the Z score is reported as 0.2.

`O=C(Nc1ccc(S(=O)(=O)Nc2nccs2)cc1)C1=NN(c2ccccc2)C(=O)CC1`: the “% Inhibition” value amounted to 22% and the Z score is -3.87.

For the compound `CC1(C(=O)NCCCc2cnoc2)CC2CCC1C2` (centres undefined), the “% Inhibition” value is given as -7% and the Z score is 1.32.

In the case of `O=C1N[C@H]2CC[C@@H]1CN(Cc1cc3ccccc3o1)C2`, the “% Inhibition” value was -15% and the Z score turned out to be 1.9.

Take `O=S(=O)(N[C@H](c1cccs1)C1(CO)CCC1)N1CCCC1`: the “% Inhibition” value is reported as 2% and the Z score was -0.37.

With `COc1ccccc1OC1(C(=O)O)CCN(c2ncnc3ccsc23)CC1`, the “% Inhibition” value is reported as -4% and the Z score is 0.48.

In the case of `O=C(NCC1(CF)CCOCC1)c1cnnc2ccccc12`, the “% Inhibition” value worked out at 2% and the Z score is recorded as -0.2.

As for `COc1cccc(CC2=NO[C@H](C(=O)N(Cc3ccccc3)CC3CC3)C2)c1`, the “% Inhibition” value was 0% and the Z score is on record as -0.05.

With `COc1ccc(-c2cc(C(=O)N3CCN(c4ccccc4OC)CC3)sn2)cc1`, the “% Inhibition” value was 11% and the Z score is listed as -1.37.

With `NC(=O)Cc1n[nH]c(-c2csc3c2CCCC3)n1`, the “% Inhibition” value is reported as -16% and the Z score was 2.11.

With `O=C(NC1CCCCC1)c1cc2c(F)cccc2s1`, the “% Inhibition” value was 9% and the Z score is listed as -1.03.

In the case of `Cc1n[nH]c(-c2cc(S(=O)(=O)N3CCc4ccccc4C3)c(C)s2)c1C`, the “% Inhibition” value is -9% and the Z score turned out to be 1.04.

Turning to `COC(=O)N1CCC(c2nnc(Cn3cccn3)n2C)CC1`, the “% Inhibition” value is -8% and the Z score is 0.74.

As to `CN(C)CCC1CCN(S(=O)(=O)C2Cc3ccccc3C2)CC1`, the “% Inhibition” value was -14% and the Z score was found to be 2.19.

Consider `Cc1ccsc1[C@H]1CCN(Cc2c(C)nn(C(C)C)c2C)C[C@@H]1O`, for which the “% Inhibition” value is reported as -6% and the Z score is 0.69.

`NCCOc1cccc(CC(=O)N2CCCCC[C@H]2c2cccc(F)c2)c1`: the “% Inhibition” value is recorded as -6% and the Z score is recorded as 0.84.

As for `Cc1cc(-c2nc(CN(C(=O)c3ccccc3)C3CC3)no2)n[nH]1`, the “% Inhibition” value is -4% and the Z score amounted to 0.49.

For `Cc1ccc(C(=O)N2CCC(N3C(=O)CC[C@H]3C(=O)NCc3cccnc3)CC2)s1`, the “% Inhibition” value is recorded as -20% and the Z score worked out at 2.12.

Values taken from ChEMBL document CHEMBL4888484, “Replenishing the malaria drug discovery pipeline: Screening and hit evaluation of the MMV Hit Generation Library 1 (HGL1) against asexual blood stage Plasmodium falciparum ,using a nano luciferase reporter read-out” (2022).
